B1: bispecific molecule 1514/1581 (OX40 x CTLA-4) (bispecific antibody, human IgG1, kappa)
heavy: EVQLLESGGGLVQPGGSLRLSCAASGFTFGYYYMSWVRQAPGKGLEWVSGISSYGSYTYYADSVKGRFTISRDNSKNTLYLQMNSLRAEDTAVYYCARSGYSNWANSFDYWGQGTLVTVSS[… human IgG1 constant region …]
light: DIQMTQSPSSLSASVGDRVTITCRASQSISSYLNWYQQKPGKAPKLLIYAASSLQSGVPSRFSGSGSGTDFTLTISSLQPEDFATYYCQQGDYTLFTFGQGTKLEIKRTVAAPSVFIFPPSDEQLKSGTASVVCLLNNFYPREAKVQWKVDNALQSGNSQESVTEQDSKDSTYSLSSTLTLSKADYEKHKVYACEVTHQGLSSPVTKSFNRGECSGGGGSGGGGSAPLKIQAYFNETADLPCQFANSQNLSLSELVVFWQDQENLVLNEVYLGKERFDSVDSKYMGRTSFDSDSWTLRLHNLQIKDKGRYQCIIHHKKPTGMINIHQMNSELSVLA
B2: bispecific molecule 1166/1261 (OX40 x CTLA-4) (bispecific antibody, human IgG1, kappa)
heavy: EVQLLESGGGLVQPGGSLRLSCAASGFTFGGYYMSWVRQAPGKGLEWVSAISGSGGSTYYADSVKGRFTISRDNSKNTLYLQMNSLRAEDTAVYYCARYDYASMDYWGQGTLVTVSS[… human IgG1 constant region …]
light: DIQMTQSPSSLSASVGDRVTITCRASQSISSYLNWYQQKPGKAPKLLIYAASSLQSGVPSRFSGSGSGTDFTLTISSLQPEDFATYYCQQYYWYGLSTFGQGTKLEIKRTVAAPSVFIFPPSDEQLKSGTASVVCLLNNFYPREAKVQWKVDNALQSGNSQESVTEQDSKDSTYSLSSTLTLSKADYEKHKVYACEVTHQGLSSPVTKSFNRGECSGGGGSGGGGSAPLKIQAYFNETADLPCQFANSQNLSLSELVVFWQDQENLVLNEVYLGKERFDSVDSKYMGRTSFDSDSWTLRLHNLQIKDKGRYQCIIHHKKPTGMINIHQMNSELSVLA
B3: 1618-1765 (bispecific antibody)
heavy: EVQLLESGGGLVQPGGSLRLSCAASGFTFSYGSMYWVRQAPGKGLEWVSSISSGSGSTYYADSVKGRFTISRDNSKNTLYLQMNSLRAEDTAVYYCARSSYYGSYYSIDYWGQGTLVTVSS[… human IgG1 constant region …]
light: DIQMTQSPSSLSASVGDRVTITCRASQSISSYLNWYQQKPGKAPKLLIYAASSLQSGVPSRFSGSGSGTDFTLTISSLQPEDFATYYCQQYYDNLPTFGQGTKLEIKRTVAAPSVFIFPPSDEQLKSGTASVVCLLNNFYPREAKVQWKVDNALQSGNSQESVTEQDSKDSTYSLSSTLTLSKADYEKHKVYACEVTHQGLSSPVTKSFNRGECSGGGGSGGGGSAPLKIQAYFNETADLPCQFANSQNLSLSELVVFWQDQENLVLNEVYLGKERFDSVDSKYMGRTSFDSDSWTLRLHNLQIKDKGRYQCIIHHKKPTGMINIHQMNSELSVLA
notes: CD137 x CTLA-4 bispecific polypeptide

Legend:
[1] = molecular target: T1, CTLA-4 (BMS, Orencia) (human, UniProt P16410 38-152); assay: cell-based or functional assay
[2] = molecular target: T1, CTLA-4 (BMS, Orencia); assay: cell-based or functional assay; remark: listed apart in the source
[3] = molecular target: T2, recombinant human CD137-Fc (R&D #838-4B) (human, UniProt Q07011 24-186); assay: dual ELISA: rhCD137-Fc coated, bispecific antibody in dilutions, biotinylated CTLA-4 (1 ug/ml), HRP-streptavidin; the signal needs both bindings at once
T2 construct: Bought; also called Human CD137 (R&D systems); CD137 (R&D Systems); not shown: Fc part, not described
T2 sequence (Q07011 24-186 limits assumed): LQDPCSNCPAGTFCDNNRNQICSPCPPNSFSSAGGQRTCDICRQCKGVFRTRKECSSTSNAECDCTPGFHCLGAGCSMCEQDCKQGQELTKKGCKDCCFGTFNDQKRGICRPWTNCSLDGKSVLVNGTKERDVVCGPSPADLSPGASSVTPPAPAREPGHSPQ

T1 sequence (P16410 38-152 limits assumed): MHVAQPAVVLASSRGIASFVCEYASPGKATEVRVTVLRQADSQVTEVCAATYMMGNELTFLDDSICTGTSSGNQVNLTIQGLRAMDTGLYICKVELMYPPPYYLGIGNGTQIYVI

Fold change in IL-2 level induced by bispecific molecule compared to the corresponding combination of the monospecific molecules at 1.5 nM [1]	Mean IL-2 level (pg/ml) induced at 1.5 nM [2]	EC50 (read off the curve) [3]	Binder
5.5 fold	5110 pg/mL	–	B1
7.8 fold	4290 pg/mL	–	B2
–	–	~700 pM	B3
